Experimental data from PMC6919601, “Identification of Plasmodium dipeptidyl aminopeptidase allosteric inhibitors by high throughput screening” (PLoS ONE, 2019).
Where “and” joins values, the source holds several entries; their conditions need not be identical. Equal values may be shown once. Among all 110,000 compounds or so, about 230 (0.21%) showed an effect of 50% or more. The list shows a part of the results.

The compounds below were run against DPAP1 (Plasmodium falciparum, UniProt Q8IIJ9) (assay: primary screen, percent inhibition; read by cleavage of a fluorogenic dipeptide substrate; higher = more effect of the substance).
Set-up: species or system P. falciparum D10 trophozoite lysates; single well
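Also: 30 min substrate incubation versus DMSO and 10 µM JCP410 controls.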

DPAP1, sequence (Q8IIJ9 whole entry, looked up): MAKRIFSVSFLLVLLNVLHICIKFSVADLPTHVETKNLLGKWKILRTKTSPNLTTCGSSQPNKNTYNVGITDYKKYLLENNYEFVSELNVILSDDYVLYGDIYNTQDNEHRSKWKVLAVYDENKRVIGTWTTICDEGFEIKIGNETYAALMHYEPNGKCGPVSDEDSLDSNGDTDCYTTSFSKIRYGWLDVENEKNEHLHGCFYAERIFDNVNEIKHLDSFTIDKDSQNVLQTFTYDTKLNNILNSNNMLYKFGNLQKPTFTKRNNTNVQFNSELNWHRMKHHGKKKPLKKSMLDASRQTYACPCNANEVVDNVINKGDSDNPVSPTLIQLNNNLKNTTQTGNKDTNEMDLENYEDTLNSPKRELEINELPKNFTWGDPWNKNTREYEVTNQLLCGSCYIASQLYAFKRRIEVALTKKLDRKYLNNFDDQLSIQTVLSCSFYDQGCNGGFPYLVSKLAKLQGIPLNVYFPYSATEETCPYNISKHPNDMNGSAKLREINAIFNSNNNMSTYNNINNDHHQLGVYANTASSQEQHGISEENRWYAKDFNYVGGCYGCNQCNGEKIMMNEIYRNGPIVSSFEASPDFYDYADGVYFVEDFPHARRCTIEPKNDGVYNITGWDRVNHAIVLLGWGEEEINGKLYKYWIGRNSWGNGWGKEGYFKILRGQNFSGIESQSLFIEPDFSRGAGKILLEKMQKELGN

Structure (SMILES)	% Inhibition @ 10 uM
Cc1cccc(OCc2nnc(SCC(=O)Nc3nc(-c4ccccc4)c(C)s3)o2)c1	2.35%
Cc1nc(CSc2nnc(-c3ccccc3)n2-c2ccccc2)cs1	0.9%
Cc1cc(C)cc(NC(=O)c2cccc(N3C(=O)C4C5C=CC(C5)C4C3=O)c2)c1 (centres unmarked)	1.1%
COc1cccc(C(=O)NC(=O)Nc2nc(-c3ccccc3)cc(C(F)(F)F)n2)c1	-2.63%
COc1ccc(NC(=O)CN(c2ccc(Cl)cc2C)S(C)(=O)=O)c(OC)c1	-3.18%
CNc1ccccc1C(=O)N[C@@H](CC(C)C)C(=O)NCC#N	-3.04%
CCOc1ccc(CNCCc2ccc(Cl)cc2)cc1	4.55%
Cc1ccc(C(=O)Nc2ccc(C)c(O)c2)cc1	-0.872%
COC(=O)c1c(O)[n+]([O-])c2cc(Cl)c(Cl)cc2[n+]1[O-]	-3.41%
CSC1=C(C(N)=O)C(c2ccccc2)C(C#N)C(=O)N1 (centres unmarked)	-3.04%
O=C(C1CCCO1)N1CCN(c2ccc(F)cc2)CC1 (centres unmarked)	2.03%
Cc1cccc(C(=O)Nc2ccc(-c3cn4cccnc4n3)cc2)c1	-11.4%
CCOC(=O)/C(C#N)=C/c1c(Oc2ccc(C(C)(C)C)cc2)nc2c(C)cccn2c1=O	-1.43%
CCCNC(=O)CSCc1nc(-c2ccc(OCC)cc2)oc1C	3.93%
CC(C)(C)/C(O)=C/C1=NC2CCCCC2N=C1/C=C(\O)C(C)(C)C (centres unmarked)	-1.84%
C=Cc1ccc(Cn2c(C(=O)O)c(CNCc3ccc(Cl)cc3)c3ccc(C)cc32)cc1	-5.04%
CCCNC(=O)c1csc2c1CCCCC2	1.93%
CC(=O)c1ccc(NCN2C(=O)C3CC=C(Cl)CC3C2=O)cc1 (centres unmarked)	2.45%
COc1ccc(OCc2nc(C#N)c(NCCc3ccccc3)o2)cc1	-1.98%
Cc1ccc(S(=O)(=O)N(CC(=O)NCC2CCCO2)c2cc(Cl)ccc2C)cc1 (centres unmarked)	-3%
CCOc1cc(C2CC(=O)NC(SCc3ccccc3)=C2C#N)ccc1O (centres unmarked)	-3.46%

Structure (SMILES)	% Inhibition @ 10 uM
COc1cc(C2Nc3ccccc3N=C3CC(C)(C)CC(O)=C32)cc(OC)c1OC (centres unmarked)	-0.968%
O=C(NCCCc1nc2ccccc2n1CC1CC1(Cl)Cl)c1ccco1 (centres unmarked)	-2.99%
Cc1nc2nc(SCc3cc(=O)n4c(C)cccc4n3)nn2c(C)c1Cc1ccc(F)cc1Cl	-0.519%
Cc1ccc(-c2c(NCCN3CCCC3)c(=O)c2=O)cc1	1.69%
N#CCNC(=O)[C@H](CSCc1ccc([N+](=O)[O-])cc1)NC(=O)c1ccccc1	-6.98%
NC(=O)Nc1ccccc1C(=O)Nc1ccc(O)cc1	-1.51%
CN(C)CCC(=O)C12CC3CC(CC(C3)C1)C2	-2.7% and -3.48%
O=C(NCCCN1CCOCC1)c1cc2c(s1)-c1ccc(Cl)cc1S(=O)(=O)C2	4.14%
COc1ccc(Cl)cc1S(=O)(=O)N1CCCC(C(=O)O)C1 (centres unmarked)	-1.31%
COc1ccc(CCNC(=O)c2nn(C)c3c2CSc2ccccc2-3)c(OC)c1	1.47%
Cc1ccc(S(=O)(=O)N(OCc2ccccc2)C(C)C(=O)O)cc1 (centres unmarked)	-2.83%
CC(=O)Nc1cc(-c2ccc(C)cc2)nn1Cc1cccc(Cl)c1	1.76%
CC(C)C(NC(=O)CN(c1cccc(F)c1)S(C)(=O)=O)C(C)C	1.15%
Cc1ccc2c(c1)cc1c(=O)n(CC(=O)O)nc(C)n12	1.72%
CCOc1ccc(C(=O)Nc2cc(OC)ccc2OC)cc1	2.54%
CCCN1CCN(C(=O)C2CCN(C(=O)c3ccc(-n4ccc5ccccc54)s3)CC2)CC1	-3.95%
O=C(NC1CCCCC1)c1ccc(CNc2nc(S)nc3ccccc23)cc1	-0.628%
CN1CCN(C(=O)CN(c2cc(C(F)(F)F)ccc2Cl)S(C)(=O)=O)CC1	-1.63%
O=C(NC1CCCC1)N1CC=C(c2c[nH]c3ccccc23)CC1	1.98%
CC1CCCC(NC(=O)Cn2ncc3c(Cl)cccc32)C1C (centres unmarked)	5.39%
O=C1C2C(c3ccccc3)OC3(C(=O)c4ccccc4C3=O)C2C(=O)N1Cc1ccc(Cl)cc1 (centres unmarked)	-3.37%

Structure (SMILES)	% Inhibition @ 10 uM
CCn1c(Oc2ccccc2OC)nc2c1c(=O)n(C)c(=O)n2C	-1.96%
Cc1ccc(-c2nc(CS(=O)CC(=O)NCc3cccnc3)c(C)o2)cc1 (centres unmarked)	2.37%
COc1ccccc1C(=O)NCCn1cc(SCC(=O)NCc2ccco2)c2ccccc21	6.64%
Cc1nc2nc(NC(=O)c3ccco3)nn2c(O)c1C	2.05%
COc1ccc(C2C=C(c3ccc(C)cc3)Nc3nnnn32)cc1OC (centres unmarked)	1.73%
CCOCCn1c(CN2CCN(Cc3ccccc3)CC2)nc2c1c(=O)[nH]c(=O)n2C	-2.92%
CCOC(=O)c1sc(/N=C/c2c(C)nn(-c3ccc(C)cc3)c2O)c(C#N)c1C	-1.68%
COc1ccc(S(=O)(=O)N2CCN(c3ccccc3)CC2)cc1	-4.3%
Cc1nc2ccccc2c(C(=O)O)c1-c1ccccc1	6.49%
CCOC(=O)C1=C(C)N=c2s/c(=C/c3cnn(C)c3C)c(=O)n2C1c1ccc(Cl)cc1 (centres unmarked)	5.38%
O=C(O)c1ccc(Br)c(N2C(=O)C3CC=CCC3C2=O)c1 (centres unmarked)	-0.25%
COCCCNC(=O)c1cc2c(=O)n3ccccc3nc2n(CCc2ccccc2)c1=N	3.6%
COCCN1C(=O)/C(=C/c2ccc(C)s2)S/C1=N\c1ccccc1	-2.25%
CCSc1nc(SCC)c2c3c(sc2n1)CN(C)CC3	9.01%
COC(F)(C(=O)Nc1cccc(C(=O)Nc2cccc(Cl)c2)c1)C(F)(F)F (centres unmarked)	-3.41%
Cc1ccc(S(=O)(=O)N(CC(=O)Nc2cccnc2)c2ccccc2)cc1	-2.44%
CN1C(=O)C(O)(CC(=O)c2ccc(Cl)c(Cl)c2)c2ccccc21 (centres unmarked)	-1.02%
CCO/N=C1/CC(c2ccccc2)Cc2onc(C)c21 (centres unmarked)	3.96%
CCCNC(=O)c1oc2ccc3c(c2c1C)C=CC1(CCCC1)O3	9.74%
COc1ccc(CNC(=O)c2cc(S(=O)(=O)N3CCOCC3)cn2C)cc1	-3.1%
